Results reported in publication PMC12533369, “Citrullination of AKT2 Catalyzed by PAD1 Facilitates the Maintenance of Stemness Characteristics of Ovarian Cancer Stem‐Like Cells in Ovarian Cancer” (Advanced Science, 2025).
No constants are given. Whether binding was seen depends on the method and setting. Binding seen in cells or lysates may run through a third protein. Some binding calls cover weakened binding; strength is not graded here. For part of these data: Where a sequence is shown, tags or fusion partners need not be part of it. One block for each molecule: values may come before it.

By UniProt entry, the sequences of proteins in these tests, tags left out.
UniProt Q9Y243: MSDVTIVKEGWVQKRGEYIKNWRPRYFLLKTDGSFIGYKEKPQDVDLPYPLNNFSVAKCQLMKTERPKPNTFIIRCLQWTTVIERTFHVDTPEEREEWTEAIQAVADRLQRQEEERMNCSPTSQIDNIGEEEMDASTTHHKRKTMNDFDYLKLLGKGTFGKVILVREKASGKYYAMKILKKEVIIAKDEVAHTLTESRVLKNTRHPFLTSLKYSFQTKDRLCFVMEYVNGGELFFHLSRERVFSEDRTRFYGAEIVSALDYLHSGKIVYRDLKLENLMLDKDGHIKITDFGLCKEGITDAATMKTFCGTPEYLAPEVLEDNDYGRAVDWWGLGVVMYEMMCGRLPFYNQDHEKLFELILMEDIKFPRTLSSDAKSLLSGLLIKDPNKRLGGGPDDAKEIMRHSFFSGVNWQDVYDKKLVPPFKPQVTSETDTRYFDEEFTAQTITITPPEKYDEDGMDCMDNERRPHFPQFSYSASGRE
UniProt P31749: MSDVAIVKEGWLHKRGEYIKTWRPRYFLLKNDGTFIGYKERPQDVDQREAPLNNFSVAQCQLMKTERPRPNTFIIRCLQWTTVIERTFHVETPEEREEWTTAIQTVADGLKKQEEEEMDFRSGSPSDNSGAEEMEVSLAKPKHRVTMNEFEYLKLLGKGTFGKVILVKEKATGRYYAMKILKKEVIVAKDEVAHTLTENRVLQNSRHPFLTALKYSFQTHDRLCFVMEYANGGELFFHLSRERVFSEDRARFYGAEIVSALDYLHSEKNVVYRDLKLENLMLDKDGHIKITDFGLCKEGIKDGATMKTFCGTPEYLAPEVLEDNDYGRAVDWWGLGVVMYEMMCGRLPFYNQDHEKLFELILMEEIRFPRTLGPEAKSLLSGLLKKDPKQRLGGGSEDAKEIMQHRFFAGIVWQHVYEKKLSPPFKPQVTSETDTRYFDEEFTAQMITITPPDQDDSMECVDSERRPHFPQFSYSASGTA

How the values were obtained:
[1] = biological target: T1, peptidylarginine deiminase 1 (PAD1), endogenous (human (endogenous in OVCAR3)) (UniProt Q9ULC6); experiment: co-IP; OVCAR3 whole cell lysate immunoprecipitated with anti-PAD1 antibody; western blot with anti-AKT1, anti-AKT2 and anti-AKT3 antibodies; endogenous proteins
T1 sequence: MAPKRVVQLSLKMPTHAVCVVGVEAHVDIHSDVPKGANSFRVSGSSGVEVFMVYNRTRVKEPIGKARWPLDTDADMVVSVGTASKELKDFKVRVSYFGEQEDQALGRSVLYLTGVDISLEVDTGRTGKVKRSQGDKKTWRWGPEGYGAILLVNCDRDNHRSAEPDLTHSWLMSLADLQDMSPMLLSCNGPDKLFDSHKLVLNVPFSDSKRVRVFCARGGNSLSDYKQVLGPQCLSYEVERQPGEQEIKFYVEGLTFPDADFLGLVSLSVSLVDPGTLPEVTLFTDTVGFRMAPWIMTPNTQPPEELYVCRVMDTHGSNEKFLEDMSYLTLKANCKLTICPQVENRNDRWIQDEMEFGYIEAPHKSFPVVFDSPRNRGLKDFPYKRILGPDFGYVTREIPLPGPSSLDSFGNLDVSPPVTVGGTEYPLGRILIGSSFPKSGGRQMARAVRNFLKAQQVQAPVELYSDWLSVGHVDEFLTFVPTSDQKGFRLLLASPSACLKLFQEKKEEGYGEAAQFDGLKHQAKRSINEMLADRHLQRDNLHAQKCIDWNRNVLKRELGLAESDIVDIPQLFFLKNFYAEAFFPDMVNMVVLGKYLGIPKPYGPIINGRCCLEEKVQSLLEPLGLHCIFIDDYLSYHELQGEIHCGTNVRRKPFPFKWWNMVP

Flag-tagged PAD1 (human) = biological target: T2, Flag-tagged PAD1 (human) (UniProt Q9ULC6); experiment: co-IP; HEK293 cells co-transfected with Flag-tagged PAD1 and HA-tagged AKT2 or its truncated forms; whole cell lysate immunoprecipitated with anti-Flag or anti-HA antibody; western blot with anti-HA and anti-Flag
T2 sequence: T1 sequence

[2] = biological target: HA-tagged AKT2 (152–481 aa) (UniProt P31751); experiment: as above
[3] = biological target: HA-tagged AKT2 (full length) (UniProt P31751); experiment: as above

Molecule: AKT3, endogenous (from UniProt Q9Y243 1-479) (enzyme)
binding [1]: no binding

Molecule: HA-tagged AKT2 (152–481 aa) (from UniProt P31751 152-481) (domain or fragment)
binding (Flag-tagged PAD1 (human)): binds

B1: HA-tagged AKT2 (1–108 aa) (domain or fragment, UniProt P31751 1-108)
chain: MNEVSVIKEGWLHKRGEYIKTWRPRYFLLKSDGSFIGYKERPEAPDQTLPPLNNFSVAECQLMKTERPRPNTFVIRCLQWTTVIERTFHVDSPDEREEWMRAIQMVAN
binding (Flag-tagged PAD1 (human)): no binding

B3: HA-tagged AKT2 (1–151 aa) (domain or fragment, UniProt P31751 1-151)
chain: MNEVSVIKEGWLHKRGEYIKTWRPRYFLLKSDGSFIGYKERPEAPDQTLPPLNNFSVAECQLMKTERPRPNTFVIRCLQWTTVIERTFHVDSPDEREEWMRAIQMVANSLKQRAPGEDPMDYKCGSPSDSSTTEEMEVAVSKARAKVTMND
binding (Flag-tagged PAD1 (human)): no binding

The next lines start with the values.

binding [1]: binds
Molecule: AKT2, endogenous (from UniProt P31751 1-481) (enzyme)

binding (Flag-tagged PAD1 (human)): binds
Molecule: HA-tagged AKT2 (full length) (from UniProt P31751 1-481) (enzyme)

binding [1]: no binding
Molecule: AKT1, endogenous (from UniProt P31749 1-480) (enzyme)

binding [2]: binds
binding [3]: binds
B2: Flag-tagged PAD1 (enzyme, UniProt Q9ULC6 1-663)
chain: T1 sequence
